Data published in article PMC4336329 (PLoS ONE, 2015).
Among all 310,000 compounds or so, about 14,000 (4.5%) showed an effect of 50% or more. Effects have a minus sign here. This is one part of the list. Where a SMILES comes first, the peptide text is derived from it. The star is where a group is joined. Boc = CC(C)(C)OC(=O)*; Bn = c1ccc(C*)cc1; NHNH2 = NN*

Target: human ether-à-go-go-related gene (hERG) potassium channel (human, UniProt Q12809)
Assay: primary screen, population patch clamp on CHO cells stably expressing hERG
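Also: peak tail current of the secondary pulse compared with the same well before compound.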

human ether-à-go-go-related gene (hERG) potassium channel, sequence (Q12809 whole entry, looked up): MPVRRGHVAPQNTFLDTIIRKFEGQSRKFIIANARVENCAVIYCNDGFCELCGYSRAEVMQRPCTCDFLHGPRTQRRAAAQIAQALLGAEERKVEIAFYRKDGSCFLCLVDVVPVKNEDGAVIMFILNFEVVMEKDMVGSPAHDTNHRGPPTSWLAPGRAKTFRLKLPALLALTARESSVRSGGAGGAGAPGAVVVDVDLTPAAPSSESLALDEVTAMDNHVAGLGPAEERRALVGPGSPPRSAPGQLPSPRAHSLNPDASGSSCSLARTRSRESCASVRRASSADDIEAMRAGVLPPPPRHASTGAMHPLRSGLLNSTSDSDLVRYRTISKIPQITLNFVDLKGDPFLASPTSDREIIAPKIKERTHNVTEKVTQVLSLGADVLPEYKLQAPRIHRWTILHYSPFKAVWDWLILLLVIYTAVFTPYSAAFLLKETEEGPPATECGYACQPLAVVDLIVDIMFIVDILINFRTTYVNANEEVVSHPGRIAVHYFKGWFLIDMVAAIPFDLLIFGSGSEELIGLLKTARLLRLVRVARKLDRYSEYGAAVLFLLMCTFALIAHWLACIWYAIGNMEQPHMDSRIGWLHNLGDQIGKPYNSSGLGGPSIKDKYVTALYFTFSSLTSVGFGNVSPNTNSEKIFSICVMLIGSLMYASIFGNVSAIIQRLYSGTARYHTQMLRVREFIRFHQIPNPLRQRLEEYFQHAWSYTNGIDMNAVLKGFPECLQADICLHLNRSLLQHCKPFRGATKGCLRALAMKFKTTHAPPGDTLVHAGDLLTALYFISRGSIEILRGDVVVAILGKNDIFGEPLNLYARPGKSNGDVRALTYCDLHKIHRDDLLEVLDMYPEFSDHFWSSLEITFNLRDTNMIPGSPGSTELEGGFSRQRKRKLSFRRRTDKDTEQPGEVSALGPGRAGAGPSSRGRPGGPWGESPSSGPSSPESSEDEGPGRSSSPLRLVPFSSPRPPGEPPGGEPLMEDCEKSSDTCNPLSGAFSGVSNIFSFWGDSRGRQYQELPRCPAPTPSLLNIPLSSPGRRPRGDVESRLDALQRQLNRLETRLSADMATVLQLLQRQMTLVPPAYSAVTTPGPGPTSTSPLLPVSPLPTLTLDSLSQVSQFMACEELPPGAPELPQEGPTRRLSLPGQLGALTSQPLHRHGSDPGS

Row | Structure (SMILES) | hERG current change (%, negative = inhibition) at 10uM [%]
1 | COc1ccc2oc(C(=O)OCC(=O)N3C(C)CCCC3C)c(C)c2c1 (stereo not drawn) | -14.8
2 | Cc1ccc(NC(=O)CCc2nc3sc4c(c3c(=O)[nH]2)CCCC4)nc1 | 8.92
3 | O=C1CCNc2c(Cl)cccc21 | 11.4
4 | Cc1nc([N+](=O)[O-])c(Br)n1CC(=O)c1ccccc1 | -11.9
5 | COc1ccc(C(=O)C2CCN(C(=S)NCC3CCCO3)CC2)cc1 (stereo not drawn) | -7.23
6 | COc1ccc(S(=O)(=O)N2CCN(C(=O)c3cc(-c4ccccc4OC)n[nH]3)CC2)cc1 | -6.19
7 | O=C1C=C(c2ccc(Br)c3ccccc23)C[C@@H](c2ccc3c(c2)OCO3)C1 | 1.98
8 | CCNS(=O)(=O)c1ccc(S(=O)(=O)N(Cc2ccccn2)C2CCCCC2)cc1 | 12.5
9 | O=C(NN1C(=O)NC2(CCCCC2)C1=O)c1ccc(-c2ccccc2Cl)o1 | -6.36
10 | O=C(COC(=O)c1ccccc1Cc1ccccc1)Nc1ccc(SC(F)F)cc1 | 3.47
11 | CN(C(=O)c1cccc(Br)c1)C1CCS(=O)(=O)C1 (stereo not drawn) | -5.59
12 | Cc1ccc2nc(-c3cccc(Br)c3)cc(C(=O)NC3CC3)c2c1 | 13.7
13 | COc1cc2[nH]c(=O)n(CCC(=O)NC3CCCC3)c(=O)c2cc1OC | 6.49
14 | O=C(CN1CCCCCC1)Nc1ccc([N+](=O)[O-])cc1Br | 6.13
15 | COC(=O)c1c(NC(=O)c2nn(C)cc2Cl)sc2c1CCCC2 | 7.27
16 | Cc1cccc(C(=O)NN2S(=O)(=O)c3ccccc3S2(=O)=O)c1 | 18.2
17 | O=[N+]([O-])c1ccc2c(c1)[nH]c(=S)n2-c1ccccc1 | 36.4
18 | CCOC(=O)C1=C(N2CCCCC2)c2cc3c(n2C1=O)CCCC3 | -11.3
19 | COc1cc(C(=O)Nc2ccc(S(=O)(=O)Nc3cc(C)nc(C)n3)cc2)cc(OC)c1OC | 19.3
20 | Cc1ccc(Nc2c([N+](=O)[O-])ccc3nonc23)c(C)c1 | 19.2
21 | CCOC(=O)c1nnn(-c2nonc2N)c1CSc1ccccc1 | -33.3
22 | CCOC(=O)C1=C(C)N(C)C(=O)NC1c1c(OC)ccc2ccccc12 (stereo not drawn) | 17.7
23 | Cc1cc(C)cc(C(=O)Nc2cccc(NC(=O)c3ccco3)c2)c1 | -14.2
24 | COc1ccc(CN(C)C(=O)c2ccc(Cl)c(S(=O)(=O)NCc3cccnc3)c2)cc1F | -46.5
25 | COc1ccccc1NS(=O)(=O)c1ccc(C)c(C(=O)NCCCN2CCCC2=O)c1 | 14
26 | Cn1cnc(S(=O)(=O)NC2CCN(Cc3ccccc3)CC2)c1 | 20
27 | O=c1[nH]c(CN2CCN(S(=O)(=O)c3ccc4c(c3)OCCO4)CC2)nc2sc3c(c12)CCCC3 | 8.84

Row | Structure (SMILES) | hERG current change (%, negative = inhibition) at 10uM [%]
28 | CCCCCN(C(=O)CCC(=O)OCC(=O)NCc1ccc(OC)cc1)c1c(N)n(CCCC)c(=O)[nH]c1=O | -3.86
29 | O=S1(=O)C=CC(c2ccccc2)C1 (stereo not drawn) | 13.1
30 | CC(O)CN(C)CC/C=C1/c2ccccc2CSc2ccccc21.Cl (stereo not drawn) | -21.9
31 | Cc1cc(C)nc(NC(=O)c2ccc(Cl)cc2[N+](=O)[O-])c1 | -4.62
32 | Cc1cc(=O)[nH]c(-c2cccnc2)n1 | 31.8
33 | COc1ccc(Br)cc1CN(C)CC(=O)Nc1cc(Cl)ccc1Cl | 4.8
34 | CCCCN(CC)CCNC(=O)c1cc2c(=O)n(C)c3ccccc3c2n1C | -15.6
35 | CC(C)n1nc(C(=O)Oc2ccc(Cl)cc2)c2ccccc2c1=O | 5.39
36 | CCCCC1CN2CCc3c([nH]c4ccccc34)C2(C)C1.Cl (stereo not drawn) | -47.2
37 | Cc1ccc(N2C(=O)c3ccccc3C2Nc2cccnc2)nc1 (stereo not drawn) | -12.3
38 | CC(OC(=O)c1ccc(Cl)c(S(=O)(=O)N2CCOCC2)c1)C(=O)Nc1ccc(S(N)(=O)=O)cc1 (stereo not drawn) | 19.5
39 | C=CCn1c(O)c(C(CC)=NCCc2ccccc2)c(=O)[nH]c1=O | -28.1
40 | CC(C)CC(NC(=O)C(COCc1ccccc1)NC(=O)OC(C)(C)C)C(=O)NN (stereo not drawn) (Boc-Ser(Bn)-Leu-NHNH2; configuration not given here) | 23.1
41 | N#CCC(=O)Nc1ccc(C(=O)NCc2cccc(Cl)c2)cc1 | 8.88
42 | O=C(CSc1nc2ccc([N+](=O)[O-])cc2[nH]1)c1ccc2ccccc2c1 | 4.45
43 | CCNC(=S)N/N=C/c1cc(Br)cc(Br)c1OC | -6.01
44 | NNc1nc2c(-c3ccc(F)cc3)nnn2c2ccccc12 | 9.92
45 | CC1(C)CCCC(C)(C)N1CC(O)COCCOc1ccc(Br)cc1.Cl (stereo not drawn) | -67.5
46 | O=C(O)/C=C/c1cn(Cc2ccccc2Cl)nc1-c1ccccc1 | 20.5
47 | COc1cccc(NC(=O)CCC(=O)Nc2ccc3nc(N4CCOCC4)cc(C)c3c2)c1 | 23.4
48 | O=C(NCc1ccco1)c1noc2c1CCCC2 | -3.59
49 | COc1ccc(NC(=O)COC(=O)c2ccc([N+](=O)[O-])o2)cc1Cl | 24.1
50 | CC(=O)Nc1ccc(-c2cc(-c3ccc(NC(C)=O)cc3)nc(-c3ccc(NC(C)=O)cc3)n2)cc1 | 2.91
51 | Cn1c(SCc2nnc(-c3ccccc3)o2)nc2ccccc21 | -18.7
52 | Cc1cccc(N2CCN(Cc3ccc([N+](=O)[O-])o3)CC2)c1C | 0.379
53 | O=c1nc(-c2ccccc2)cc(-c2ccccc2)[nH]1 | -2.06
54 | COC(=O)C1=C(c2ccc(OC(F)(F)F)cc2)C[C@@H]2CC[C@H]1N2C(=O)NCCCOC(C)C | -29.9
